The campaign covered roughly 190,000 compounds. About 520 (0.27%) were called active. Inconclusive means that the source gave no clear call. Such entries were picked first, then a sample of the others.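 Rule for the calls: active = GTP binding activity at least 20 points away from the 100% control level, either lower or higher; inconclusive = compound flagged as likely green fluorescent, judged across all proteins; inactive = the rest.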
The compounds below were run against Ras-related C3 botulinum toxin substrate 1 (Homo sapiens) (UniProt P63000) (assay: wildtype Rac1 GTP binding modulators, primary screen, biochemical, GST-Rac1 beads, flow cytometry, multiplex (AID 757)). Conditions: fluorescent GTP binding, at 10 µM, actives lie on both sides, 0 = cold GTP competed, 100 = untreated.
In the case of `Cc1nc2ccc(NC(=O)N(C(C)C)C(C)C)cc2s1`, the GTP binding activity (% of control) is reported as inactive: 103%.
In the case of `Cc1ccc(-c2noc(-c3ccoc3C)n2)cc1`, the GTP binding activity (% of control) is reported as inactive: 101%.
In the case of `Cc1ccc(/C(N)=N/OC(=O)Cc2ccccc2)cc1`, the GTP binding activity (% of control) is reported as inconclusive: 103%.
`CS(=O)(=O)N1CCCC(C(=O)Nc2ccc3c(c2)OCCO3)C1` (stereo not given) was tested, and the GTP binding activity (% of control) was inactive: 104%.
For `COc1nc(Nc2ccc([N+](=O)[O-])cc2)nc(NC2CCCCC2)n1`, the GTP binding activity (% of control) was inactive: 103%.
With `CN1CCN(CC(=O)Nc2cc(N(C)C)nc3ccccc23)CC1` the GTP binding activity (% of control) was inconclusive: 100%.
For `N#Cc1c(N2CCN(c3ccc(F)cc3)CC2)nc(N)c2c(N)nc3c(c12)CC(=O)N3C1CC1`, the GTP binding activity (% of control) was inconclusive: 94%.
In the case of `Cc1nn(-c2ccccc2)c(Cl)c1CN(C(=O)CCl)c1cccc2ccccc12`, the GTP binding activity (% of control) is reported as inactive: 103%.
With `CC(=O)NC(Cc1ccccc1C)C(=O)NC1CCN(c2ncccc2[N+](=O)[O-])CC1` (stereo not given) the GTP binding activity (% of control) was inactive: 106%.
With `Cc1csc(NC(=O)c2cc(=O)[nH]c3ccc(S(=O)(=O)N4CCOCC4)cc23)n1` the GTP binding activity (% of control) was active: 75%.
For `CN(/N=C/c1cccnc1)C1=NS(=O)(=O)c2ccccc21`, the GTP binding activity (% of control) was active: 69%.
For `O=c1ccc2cc(S(=O)(=O)Nc3ccc(F)cc3)ccc2o1`, the GTP binding activity (% of control) was inconclusive: 92%.
`C=CCOc1cccc(/C=N/NC(=O)CN(c2cc(Cl)ccc2OC)S(=O)(=O)c2ccc(C)c([N+](=O)[O-])c2)c1` was tested, and the GTP binding activity (% of control) was inconclusive: 145%.
With `CC(=O)c1c(C)nc2sc3c(=N)n(N)cnc3c2c1-c1ccc(Cl)cc1` the GTP binding activity (% of control) was inconclusive: 100%.
In the case of `COC(=O)c1sc2nc(-c3ccco3)ccc2c1N`, the GTP binding activity (% of control) is reported as inconclusive: 86%.
`O=C(O)c1ccccc1C(=O)NCc1cccnc1` was tested, and the GTP binding activity (% of control) was inactive: 104%.
`O=S(=O)(c1cccc(C(F)(F)F)c1)N1CCN(c2cnccn2)CC1` was tested, and the GTP binding activity (% of control) was inactive: 99%.
In the case of `O=C(c1ccc(C(F)(F)F)cc1)C1CCCN(C(=O)CCN2CCCO2)C1` (stereo not given), the GTP binding activity (% of control) is reported as inactive: 98%.
In the case of `Oc1ccc(NC(=S)N=Nc2c(O)[nH]c3ccc(Br)cc23)cc1`, the GTP binding activity (% of control) is reported as active: 79%.
In the case of `CC1=C(C(=O)Nc2cc(C)ccn2)C(c2ccc(C)cc2)C2=C(CCCC2=O)N1` (stereo not given), the GTP binding activity (% of control) is reported as inconclusive: 104%.
In the case of `Cc1ccc(C(=O)N/N=C\c2c(C)nn(-c3ccccc3)c2Cl)cn1`, the GTP binding activity (% of control) is reported as inconclusive: 107%.
`CCC1(CC)NC(=O)N(CC(=O)OCC(=O)Nc2sccc2C#N)C1=O` was tested, and the GTP binding activity (% of control) was inconclusive: 100%.
For `COc1cc(/C=N/Nc2nc(Nc3ccccc3)nc(N3CCCCC3)n2)ccc1OCC(=O)O`, the GTP binding activity (% of control) was inconclusive: 90%.
For `CCCCC(O)CN1CCC(c2ccccc2)CC1` (stereo not given), the GTP binding activity (% of control) was inconclusive: 103%.
`O=C(O)Cn1nnc(-c2cccs2)n1` was tested, and the GTP binding activity (% of control) was inconclusive: 113%.
`COc1ccc(S(=O)(=O)Nc2ccccc2C(N)=O)cc1OC` was tested, and the GTP binding activity (% of control) was inactive: 99%.
With `CC(C)CN(CC(C)C)S(=O)(=O)N1CCC(C(=O)NCc2ccc3c(c2)OCO3)CC1` the GTP binding activity (% of control) was inactive: 94%.
For `Cc1ccc(SCC(=O)NC(=O)NCCC(C)C)c(C)c1`, the GTP binding activity (% of control) was inactive: 101%.
For `Cc1nc2ncccn2c1-c1csc(Nc2ccc(N(C)C)cc2)n1`, the GTP binding activity (% of control) was inactive: 90%.
In the case of `COc1cc(C)nc(SCC(N)=O)n1`, the GTP binding activity (% of control) is reported as inconclusive: 91%.
For `CCN1/C(=C\C(=S)Nc2ccccc2)Sc2ccccc21`, the GTP binding activity (% of control) was inconclusive: 101%.
In the case of `Cc1ccccc1-n1c(=O)cc(N2CCc3ccccc3C2)[nH]c1=O`, the GTP binding activity (% of control) is reported as inconclusive: 108%.
`Cn1c(N/N=C/c2cccs2)nc2c1c(=O)n(Cc1ccccc1)c(=O)n2C` was tested, and the GTP binding activity (% of control) was inconclusive: 78%.
With `Cc1cc(Cl)ccc1NC(=S)Nc1ccccn1` the GTP binding activity (% of control) was inconclusive: 100%.
With `Cc1sc2ncnc(OCC(=O)NC(C)C)c2c1C` the GTP binding activity (% of control) was inconclusive: 105%.
For `CS(=O)(=O)N1CCN(C(=O)C2c3ccccc3Oc3ccccc32)CC1`, the GTP binding activity (% of control) was active: 121% [activator].
With `Cc1cc2nc(/C(C#N)=C/c3ccncc3)[nH]c2cc1C` the GTP binding activity (% of control) was inactive: 86%.
`CCOC(=O)c1cc2c(ccn2C)n1CC(=O)N1CCCC(C)C1` (stereo not given) was tested, and the GTP binding activity (% of control) was inconclusive: 93%.
`COC12NC(=O)N(C)C1(OC)C(=O)N(C)C(=O)N2C` (stereo not given) was tested, and the GTP binding activity (% of control) was inactive: 105%.
With `Cc1cc(C=O)c(C)n1-c1cc(C(=O)O)cc(C(=O)O)c1` the GTP binding activity (% of control) was inconclusive: 95%.
In the case of `CCOC(=O)N1CCN(C(=O)C2CCCN(S(=O)(=O)c3ccc(C)cc3)C2)CC1` (stereo not given), the GTP binding activity (% of control) is reported as inconclusive: 106%.
With `Cc1nc(-c2ccccc2)sc1C(=O)/C=C/N(C)C` the GTP binding activity (% of control) was inactive: 96%.
`CCOc1ccc(-n2c(SCC(=O)Nc3ccc(OC)cc3OC)nc3c(c2=O)SCC3)cc1` was tested, and the GTP binding activity (% of control) was inconclusive: 102%.
`CCSc1nc2nc(C)cc(C)n2n1` was tested, and the GTP binding activity (% of control) was inactive: 100%.
`CCCN1C(=O)/C(=C\C=C2/Sc3ccccc3N2CC)SC1=S` was tested, and the GTP binding activity (% of control) was active: 69%.
`Cc1cc(-c2n[nH]c(=S)n2/N=C/c2cc([N+](=O)[O-])ccc2Cl)n[nH]1` was tested, and the GTP binding activity (% of control) was active: 71%.
With `O=C(O)c1cn(Cc2ccccc2Cl)c2ccc(S(=O)(=O)N3CCOCC3)cc2c1=O` the GTP binding activity (% of control) was inconclusive: 100%.
For `O=C(NC(NCc1ccccn1)(C(F)(F)F)C(F)(F)F)c1ccco1`, the GTP binding activity (% of control) was inconclusive: 113%.
In the case of `NS(=O)(=O)c1ccc(NC(=O)N[C@@H](Cc2ccccc2)C(=O)O)cc1`, the GTP binding activity (% of control) is reported as inconclusive: 104%.
For `COc1ccc(/C=N/Nc2nnc(Cc3ccc(OC)c(OC)c3)c(=O)[nH]2)cc1OC`, the GTP binding activity (% of control) was inconclusive: 79%.
`Cc1cc(NC(=O)CSc2nnc(-c3cccnc3)n2Cc2ccccc2)no1` was tested, and the GTP binding activity (% of control) was inconclusive: 92%.
In the case of `O=C(N/C=C/c1ccccc1)Nc1ccc(Cl)cc1`, the GTP binding activity (% of control) is reported as inconclusive: 96%.
With `COc1cc(/C=N/N=C2/SCC(=O)N2c2ccc(O)cc2)ccc1O` the GTP binding activity (% of control) was inactive: 100%.
With `O=C(CCn1cnc2ccccc2c1=O)Nc1cccc(Cl)c1Cl` the GTP binding activity (% of control) was inconclusive: 91%.
For `COc1cc(C=O)c(Br)cc1OCC(=O)NCc1ccccc1`, the GTP binding activity (% of control) was inactive: 97%.
`COc1ccc(C)cc1NC(=O)COC(C)=O` was tested, and the GTP binding activity (% of control) was active: 137% [activator].
With `CCNC(=S)N(Cc1cccs1)Cc1cc2cc(OCC)ccc2[nH]c1=O` the GTP binding activity (% of control) was inconclusive: 170%.
In the case of `CCN(CC)CCCNc1ncnc2ccccc12`, the GTP binding activity (% of control) is reported as inconclusive: 102%.
With `CCN(CC(=O)NC(C)C)C(=O)C(CCSC)NC(=O)c1cccc(C)c1` (stereo not given) the GTP binding activity (% of control) was inactive: 102%.
For `Cn1c(CCNC(=O)c2ccc(Cl)c(Cl)c2)nnc1SCc1ccc(Cl)c(Cl)c1`, the GTP binding activity (% of control) was inconclusive: 93%.

Source: PubChem BioAssay AID757 (NMMLSC, 2007)
